Data taken from PubChem BioAssay AID1347417 (National Center for Advancing Translational Sciences (NCATS), 2020).
The campaign covered roughly 120,000 compounds. About 5,300 (4.4%) were called active. Inconclusive means that the source gave no clear call. Such entries were picked first, then a sample of the others. Calls come from the whole dose curve; as a rule, active = well fitted inhibition curve with a large enough effect; inconclusive = small, poorly fitted or top-dose-only effect; inactive = no such curve, though single readings can be large or run the other way. Potencies of inconclusive entries are doubtful fits and often do not repeat.

test: qHTS Primary assay for Inhibitors of Plasmodium falciparum Dd2 growth in vitro; note: nearly all actives have a fitted effect of over 65% in size;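 for activity, negative = inhibition: plate controls were DMSO vehicle for no effect and reference drug for full effect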; conditions: P. falciparum Dd2 growth, SYBR Green, 72 h; activity, negative = inhibition: at 28.9 µM (top of the series) unless noted; series mostly up to 28.9 µM
In short: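 Infected erythrocytes (Dd2, 0.3% parasitemia, 2.5% hematocrit final) are added to compound in RPMI-1640/Albumax II medium, grown 72 h at 37C in low oxygen, then lysed with saponin/Triton-X containing SYBR Green and read by fluorescence.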
Potency is the fitted concentration of half-maximal effect; tags give direction and shape of the fitted curve.

Q: With CCOCCn1cc(C2CCN(S(=O)(=O)c3ccc(CC)cc3)CC2)c2ccccc21 as the compound, how does the Potency read?
A: Its Potency is inconclusive: 7.94 µM [inhibitor, partial curve, poor fit].

Q: Which Potency does the source give for O=C1c2cccn2CC(CNS(=O)(=O)Cc2ccccc2)N1Cc1ccccc1 (stereo not drawn) here?
A: The Potency was inconclusive: 11.2 µM [inhibitor, single point].

Q: For N#CC1CCN(C(=O)c2nc(-c3cccnc3)c3ccccn23)CC1, which Potency is on record?
A: The Potency was “inactive”.

Q: For CCc1nncn1C1CCN(S(=O)(=O)c2ccc(F)cc2)CC1, which Potency is on record?
A: The Potency was “inactive”.

Q: For COc1cccc(-c2cc3c(=O)n(CCNC(=O)c4cccc5[nH]ccc45)ccn3n2)c1, which Potency is on record?
A: The Potency was inconclusive: 0.891 µM [inhibitor, full curve].

Q: For CCOc1cccc(CN2CCCC(CNC(=O)c3cccc(OC)c3OC)C2)c1 (stereo not drawn), which Potency is on record?
A: The Potency was inconclusive: 3.98 µM [inhibitor, partial curve, poor fit].

Q: With CCOC(=O)N1CCc2c(sc3c2c(=O)n(Cc2ccccc2)c(=O)n3Cc2c(F)cccc2Cl)C1 as the compound, how does the Potency read?
A: The Potency was active: 3.16 µM.

Q: For NC(=O)CNC(=O)C1=C[C@@H](Oc2cc(F)ccc2Br)[C@H](O)[C@H](O)C1, which Potency is on record?
A: The Potency was “inactive”.

Q: Which activity, negative = inhibition does the source give for CN(Cc1ccccc1)C(=O)c1cc2c(=O)n(C)c3ccccc3c2s1 here?
A: The activity, negative = inhibition was inconclusive: -50.8% [inhibitor] [at 5.79 µM].

Q: For O=C1CC(c2nc3ccccc3n2Cc2c(F)cccc2Cl)CN1c1cccc(C(F)(F)F)c1 (stereo not drawn), which Potency is on record?
A: Its Potency is inconclusive: 10 µM [inhibitor, single point].

Q: For CSc1cccc(N2C(=O)N(Cc3ccc([N+](=O)[O-])cc3)c3ccccc3S2(=O)=O)c1, which Potency is on record?
A: The Potency was “inactive”.

Q: Which Potency does the source give for Cc1cn2nc(C(=O)NCc3ccccc3)cc2c(N(C)Cc2ccccc2)n1 here?
A: Its Potency is inconclusive: 17.8 µM [inhibitor, single point].

Q: Which Potency does the source give for Cc1c(Cl)cccc1Nc1sc(C(=O)c2ccccc2)c(N)c1S(=O)(=O)c1ccccc1 here?
A: The Potency was inconclusive: 17.8 µM [inhibitor, single point].

Q: With O=C(Nc1ccccc1)c1ccc2c(c1)n(Cc1cccc(F)c1)c(=O)c1ccnn12 as the compound, how does the Potency read?
A: Its Potency is inconclusive: 2.82 µM [inhibitor, full curve, poor fit].

Q: Which Potency does the source give for COC(=O)c1cncc(N2CCCC3(CCC(=O)N(Cc4ccccc4)C3)C2)n1 (stereo not drawn) here?
A: Its Potency is “inactive”.

Q: Which Potency does the source give for Cc1nc(-c2ccccc2)sc1-c1ccc(SCC(=O)Nc2ccc(F)cc2F)nn1 here?
A: The Potency was inconclusive: 8.91 µM [inhibitor, partial curve].

Q: Which Potency does the source give for COc1ccc(CN(C)C2CCCN(CCc3ccccc3)C2)cc1F (stereo not drawn) here?
A: The Potency was inconclusive: 8.91 µM [inhibitor, single point].

Q: Which Potency does the source give for Cc1oc2ncnc(N3CCCCC3)c2c1C(=O)NCC1CCN(Cc2ccc(F)cc2)CC1 here?
A: Its Potency is inconclusive: 8.91 µM [inhibitor, single point].
